Source: PubChem BioAssay AID1159614 (National Center for Advancing Translational Sciences (NCATS), 2016)
Among all 45,000 compounds or so, about 65 (0.1%) were called active. Calls come from the whole dose curve; as a rule, active = well fitted activation curve with a large enough effect; inconclusive = small, poorly fitted or top-dose-only effect; inactive = no such curve, though single readings can be large or run the other way. This is one part of the list.

biological target: Galactocerebrosidase (Homo sapiens) (UniProt P54803); experiment: A Novel Cell-Based Assay to Identify Small Molecules for B -Galactocerebrosidase; settings: 145M-Twi-hGALC-G270D cells (Twitcher mouse brain line with human GALC G270D), HMU-beta-Gal fluorescence, 48 h; series mostly up to 57.5 µM; activation: at the top concentration; note: 0% is about no effect; nearly all actives have a fitted effect of over 65% in size
How it was run: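 Fluorescence readout: HMU-β-gal cleavage by mutant GALC (0.1 mM final, citrate/phosphate pH 5.2 with 1 mg/mL taurocholate), stopped with carbonate/bicarbonate plus Triton X-100. Cells: murine Twitcher 145M-Twi expressing human G270D GALC; qHTS for activators.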

Chain of UniProt P54803 (P54803 whole entry, looked up): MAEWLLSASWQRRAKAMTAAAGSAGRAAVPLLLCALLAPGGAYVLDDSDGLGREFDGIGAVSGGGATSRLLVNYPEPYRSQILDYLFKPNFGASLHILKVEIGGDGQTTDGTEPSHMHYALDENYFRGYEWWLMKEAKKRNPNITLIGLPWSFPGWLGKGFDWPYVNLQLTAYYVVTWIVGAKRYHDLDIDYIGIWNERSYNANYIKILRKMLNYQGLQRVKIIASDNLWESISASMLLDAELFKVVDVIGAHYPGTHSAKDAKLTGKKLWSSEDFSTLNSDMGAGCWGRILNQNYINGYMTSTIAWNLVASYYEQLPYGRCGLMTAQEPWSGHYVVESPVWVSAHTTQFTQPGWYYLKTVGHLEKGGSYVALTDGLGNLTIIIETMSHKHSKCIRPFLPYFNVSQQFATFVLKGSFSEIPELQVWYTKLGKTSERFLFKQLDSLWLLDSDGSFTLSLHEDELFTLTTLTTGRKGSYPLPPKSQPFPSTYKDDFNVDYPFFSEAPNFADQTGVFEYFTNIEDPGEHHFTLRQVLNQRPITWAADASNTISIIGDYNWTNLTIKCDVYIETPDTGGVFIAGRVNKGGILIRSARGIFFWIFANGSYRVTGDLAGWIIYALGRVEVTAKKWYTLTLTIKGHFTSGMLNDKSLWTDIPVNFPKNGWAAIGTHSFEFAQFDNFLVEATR

activation, inactive:
COCCCN1C(=O)N(c2ccccc2)C(=O)C1CC(=O)Nc1ccc(F)cc1 (configuration not stated) -7.55%, Cc1cc(C)c(NC(=O)Cn2nc3c(cc2=O)CCCC3)c(C)c1 -12.4%, COc1ccccc1NC(=O)N1CC(=O)Nc2sc3c(c2C1c1ccccc1)CCCC3 (configuration not stated) -10.3%, O=C(Nc1ccc(S(=O)(=O)Nc2ccccc2)cc1)N1CCCC1 -16.3%, CCCS(=O)(=O)c1ncc(Cl)c(C(=O)N(Cc2ccccc2)Cc2ccco2)n1 -14.8%, Cc1ccc(S(=O)(=O)Nc2cc3c(cc2C)n(C)c(=O)c(=O)n3C)cc1 -12.7%, O=S1(=O)c2cccc3cccc(c23)N1CCCN1CCN(c2ccc(F)cc2)CC1 -26.9%, COc1ccc(-c2noc(-c3ccc(NCc4ccc(C)cc4)c([N+](=O)[O-])c3)n2)cc1OC -7.11%, Cn1c(=O)c2c(nc(SCC(=O)Nc3ccc(OC(F)(F)F)cc3)n2Cc2cccc(C(F)(F)F)c2)n(C)c1=O -51.8%, COc1ccc(-n2nc(C(=O)N3CCC(C)CC3)c3c4ccccc4n(C)c3c2=O)cc1Cl -7.88%, Cc1ccccc1NC(=O)CSc1nc(-c2ccc(F)cc2)c2cccc(C)c2n1 0.045%, O=c1[nH]c(=O)c2ccccc2o1 -12.9%, COc1cc(CNC(=O)c2cc(-c3ccccc3)n[nH]2)cc(OC)c1OC -17.5%, COc1cccc(CNC(=O)Cn2cc3c(n2)-c2c(oc(C(=O)N4CCCC4)c2C)CC3)c1OC -11%, CCc1nn(CC(=O)NCCc2ccc(OC)cc2OC)c(=O)c2cc3sccc3n12 16.8%, Cc1ccc(-c2onc(C)c2C)cc1S(=O)(=O)N1CCCCC1 4.48%, CCOC(=O)c1c(N)n(-c2ccc(C)c(C)c2)c2nc3ccccc3nc12 13.7%, Cc1ccc(CSC2=Nc3ccccc3C3=NC(CCC(=O)N4CCN(c5ccccc5)CC4)C(=O)N23)cc1 (configuration not stated) -3.32%, CCOC(=O)c1sc2ccccc2c1S(=O)(=O)Nc1c(C)cccc1C -14.6%, Cn1nc(C(=O)NCc2ccccc2)c2c1-c1ccccc1SC2 -12.9%, O=C(Cn1c(=O)n(-c2ccc(F)cc2)c(=O)c2sc3ccccc3c21)N1CCCC1 -10.5%, Cc1cc(NC(=O)N2CC=C(c3c[nH]c4ccccc34)CC2)ccc1Br -23.7%, COc1cc(NC(=O)Cn2ncc3c(=O)oc4ccccc4c32)cc(OC)c1OC -17.6%, Cc1nc2c(cnn2-c2ccccc2Cl)c(=O)n1-c1ccc(C(C)C)cc1 -0.323%, CCc1ccc(S(=O)(=O)c2nnn3c2nc(NCCc2ccccc2)c2sccc23)cc1 -28.3%, COc1cccc(-c2nc(SCC(=O)Nc3ccc4c(c3)OCO4)c(-c3ccccc3)[nH]2)c1 -16%, CN(C)S(=O)(=O)N(CC(=O)NCCSCc1ccccc1Cl)c1ccccc1 -25%, CCCc1noc(-c2ccc(N3CCCCC3)c([N+](=O)[O-])c2)n1 -14.4%, COc1ccc(CCn2cc3c(c2-c2ccccc2Br)c(=O)n(C)c(=O)n3C)cc1OC -28.6%, Cc1cccc(N2CCN(S(=O)(=O)c3cc(Br)cc4c3N(C(=O)C3CC3)CC4)CC2C)c1 (configuration not stated) -18.1%, CN1C(=O)Cc2cc(S(=O)(=O)CCC(=O)Nc3cccc(C(F)(F)F)c3)ccc21 -17.4%, CC(C)OCCCn1c(SCc2cccc(Br)c2)nc2c(sc3ccccc32)c1=O -13.1%, COc1ccc2c(Sc3ccccc3)c(C(=O)NCc3cccc(OC)c3OC)[nH]c2c1 -24.2%, CCOc1ccc(CCNC(=O)CCCc2nnc3n(CC(C)C)c(=O)c4sccc4n23)cc1 -12.9%, CCOC(=O)C1(C)C=C(Nc2ccc(C(N)=O)cc2)C(=O)N1c1ccccc1 (configuration not stated) -12.6%, CCOC(=O)c1cc(S(=O)(=O)Nc2ccc(OC)c(Cl)c2)[nH]n1 -1.84%, Cc1ccc(OC(=O)c2cc(-c3ccccc3)nc3ccc(C)cc23)cc1 -17.5%, COCCNC(=O)c1ccc2c(c1)N(Cc1cccc(Cl)c1)C(=O)c1ccccc1S2(=O)=O -12%, COc1ccccc1Oc1nc2c(c(=O)n(C)c(=O)n2C)n1Cc1cccc(Br)c1 -14.9%, CC(=O)N1c2ccc(S(=O)(=O)NCC3CCC(C(=O)NCCC(C)C)CC3)cc2CC1C (configuration not stated) 10.5%, CCc1ccc(OC(=O)CSc2nnc(-c3ccc4c(c3)OCO4)o2)cc1 -5.16%, CCS(=O)(=O)N1CCc2cc(C(=O)N3CCN(c4cccc(C(F)(F)F)c4)CC3)ccc21 -1.55%, Cc1ccc(NC(=O)C(=O)NCC(c2cccnc2)N2CCOCC2)cc1C (configuration not stated) -12.9%, Cc1ccc(C)c(Cn2c(=O)c3c(nc4n3CCN4c3ccc(F)cc3)n(C)c2=O)c1 0.483%, CCn1c(CN2CCC(C)CC2)nc2cc(NC(=O)c3ccccc3[N+](=O)[O-])ccc21 -16.4%, CC(=O)NCCNC(=O)CCCc1nnc2n(CCC(C)C)c(=O)c3sccc3n12 -8.77%, CCOC(=O)c1c(C)[nH]c(CCC(=O)NCCCN2CCN(c3cccc(Cl)c3)CC2)c1C -14.8%, CCOc1ccc(-n2c(Cc3ccccc3)nnc2SCc2nc(-c3ccccc3C)no2)cc1 -10.9%, Cc1ccc(C(=O)c2oc3ccccc3c2NC(=O)c2cc(=O)c3ccccc3o2)cc1 -15.7%, Fc1cccc(-c2nc(-c3ccncc3)no2)c1 -9.31%, CCOCCCNC(=O)C(c1ccc(OC)cc1)N(Cc1cccs1)C(=O)c1ccc(NC(C)=O)cc1 (configuration not stated) -25%, COc1cccc(-c2cn3c(n2)sc2cc(C(=O)NCc4cccs4)ccc23)c1 -18.8%, COc1ccc(CNC(=O)Cn2ccc3cc(S(=O)(=O)N4CCCCCC4)ccc32)cc1OC -6.43%, COc1ccc2oc(=O)cc(CN3CCN(C(=O)c4ccccc4F)CC3)c2c1 1.54%, CCOc1ccc(CNC(=O)C2CCN(S(=O)(=O)c3c(C)noc3/C=C/c3ccc(C)cc3)CC2)cc1OC 3.11%, O=C(CCN1CCC(c2ccccc2)C1)c1ccc2c(c1)OCCO2 (configuration not stated) -9.26%, COc1ccc(NC(=O)CSc2nc3nc(C)cc(C)n3n2)cc1 -0.142%, CCOc1ccc(CNS(=O)(=O)c2ccc3[nH]c4c(c3c2)CCCC4)cc1OC -10%, Cc1c(CNCc2ccc(Cl)cc2)c(C(=O)O)c(C)n1Cc1ccc(F)cc1 -9.44%, CC(=O)Nc1ccc(NC(=O)CC2Sc3ccccc3NC2=O)cc1 (configuration not stated) -14.8%, Cc1ccc(Cl)cc1N1CCN(C(=O)c2cc(S(=O)(=O)N3CCC(C)CC3)cn2C)CC1 -1.93%, CCCN(CCC)CCCNC(=O)C1CCC(CNS(=O)(=O)c2ccc(NC(C)=O)cc2)CC1 (configuration not stated) 7.07%, COc1cccc(CNC(=O)CCc2nnc3n(C)c(=O)c4sccc4n23)c1 -8.15%, COc1ccc(NC(=O)Cn2c(CCC(=O)O)ccc2-c2ccccc2)cc1Cl -11.2%, CCOc1ccc(CC(=O)Nc2c(C(=O)c3ccc(F)cc3)oc3ccccc23)cc1OCC -12.9%, CCOC(=O)c1c(C)oc2nc(C)nc(Nc3cccc(OC)c3)c12 -15.2%, COc1ccc(C(CNC(=O)COc2ccc(C)c(C)c2)N2CCCCC2)cc1 (configuration not stated) -11.6%, Cc1ccccc1CSc1cn(CCNC(=O)c2cccs2)c2ccccc12 -30.7%, COC(=O)c1ccc(C2Nc3c(C)cc(C)cc3C3C=CCC32)cc1 (configuration not stated) -2.07%, CCC(O)c1nc2ccccc2n1Cc1cccc(Cl)c1 (configuration not stated) -14.5%, COc1ccc(CC(=O)Nc2nc3c(s2)CC(C(C)(C)C)CC3)cc1 (configuration not stated) 17.8%, Cc1ccc(NC(=O)CN2C(=O)CCSc3ccc(S(=O)(=O)N4CCCC4)cc32)cc1 -18.2%, COc1ccc(NC(=O)C2=CC(c3cccs3)=NS(=O)(=O)N2C)cc1 -15.3%, Cc1ccccc1CNC(=O)C(C)n1nc(C)n2c(cc3occc32)c1=O (configuration not stated) 1.89%, Cc1ccc(-c2nc3c(c(SCC(=O)N4CCCCC4)n2)Cc2cc(C)ccc2O3)cc1 -22.6%, CCc1ccc(-c2nc(CSCC(=O)NCc3ccccc3OC)c(C)o2)cc1 -14%, CCn1c(CNC(=O)c2ccc(OC)cc2)nnc1SCC(=O)Nc1ccc(OC)cc1 -10%, CC(C)=CCC[C@@](C)(O)[C@H]1CC=C(C)CC1 -16%, COc1ccccc1CNC(=O)C(Cc1ccccc1)NS(=O)(=O)c1ccc2c(c1)oc(=O)n2C (configuration not stated) -9.18%, CCOC(=O)c1cccc(NC(=O)CSc2ncc3c(n2)-c2ccccc2N(C)S3(=O)=O)c1 -12.7%, CCOc1ccc(CC(=O)Nc2ccc3nc(N4CCCCC4)cc(C)c3c2)cc1OCC 13.2%, O=C(NCCc1ccccc1)c1ccc2c(c1)N(Cc1ccccc1Cl)C(=O)c1ccccc1S2 -8.78%, Cc1nn(Cc2noc(C(=O)NCc3ccc(F)cc3)n2)c(C)c1Br -12.8%, CC(C)NC(=O)Nc1ccc2c(c1)N(C)C(=O)c1ccccc1S2 -3.63%, COc1ccc(-c2nc3scc(CCNS(=O)(=O)c4ccc(F)cc4F)n3n2)cc1OC -14%, CCc1nnc(NC(=O)CSc2nc3c([nH]c4ccccc43)c(=O)n2-c2cc(C)cc(C)c2)s1 -0.0995%, O=C1CC(c2nc3ccccc3n2CCCCOc2ccccc2)CN1c1ccccc1Cl (configuration not stated) 2.48%, Cc1ccc(-c2noc(COc3ccc(Br)c(C)c3)n2)cc1 -0.414%, O=C1C(=O)c2ccccc2C(O)=C1C1CCC(c2ccc(Cl)cc2)CC1 (configuration not stated) -11.3%, Cc1nnc(SCc2cc(=O)n3c(C)cccc3n2)s1 -0.688%, COc1ccc(-n2ncc3c(N4CCN(c5cccc(C)c5)C(C)C4)ncnc32)cc1 (configuration not stated) -12.9%, Clc1cccc(CNc2ncnc3c2nc2n3CCCC2)c1 -13.2%, CCOc1ccc(Cn2c(=O)oc3ccccc32)cc1 -7.23%, O=C(Cn1c(=O)n(Cc2ccc3c(c2)OCO3)c(=O)c2ccccc21)Nc1cccc(Cl)c1 -12.2%, NS(=O)(=O)c1ccc(NC(=O)CCn2c(=O)oc3ccccc32)cc1 2.49%, Cc1c(C(=O)N2CCCC2)oc2c1-c1nn(CC(=O)NCc3cccc(Br)c3)cc1CC2 -24%, COc1ccc(Cl)cc1NC(=O)CCc1nc(-c2ccccc2F)no1 -4.72%
